Measurements published in the supplement of paper PMC3334620.
Over roughly 33,000 sequences, “E-score (-0.5 to 0.5)” has its median near -0.054; the highest 2% begin near 0.35. The list shows a part of the results.

What follows are sequences tested against T1, Stb5 (UniProt P38699) (assay: PBM E-score (8-mer binding enrichment) (E-score (-0.5 to 0.5)); higher = stronger / more preferred TF binding; most listed sequences are background and not binding sites). Conditions: protein concentration: 200 nM; construct: GST-full length.
T1 sequence: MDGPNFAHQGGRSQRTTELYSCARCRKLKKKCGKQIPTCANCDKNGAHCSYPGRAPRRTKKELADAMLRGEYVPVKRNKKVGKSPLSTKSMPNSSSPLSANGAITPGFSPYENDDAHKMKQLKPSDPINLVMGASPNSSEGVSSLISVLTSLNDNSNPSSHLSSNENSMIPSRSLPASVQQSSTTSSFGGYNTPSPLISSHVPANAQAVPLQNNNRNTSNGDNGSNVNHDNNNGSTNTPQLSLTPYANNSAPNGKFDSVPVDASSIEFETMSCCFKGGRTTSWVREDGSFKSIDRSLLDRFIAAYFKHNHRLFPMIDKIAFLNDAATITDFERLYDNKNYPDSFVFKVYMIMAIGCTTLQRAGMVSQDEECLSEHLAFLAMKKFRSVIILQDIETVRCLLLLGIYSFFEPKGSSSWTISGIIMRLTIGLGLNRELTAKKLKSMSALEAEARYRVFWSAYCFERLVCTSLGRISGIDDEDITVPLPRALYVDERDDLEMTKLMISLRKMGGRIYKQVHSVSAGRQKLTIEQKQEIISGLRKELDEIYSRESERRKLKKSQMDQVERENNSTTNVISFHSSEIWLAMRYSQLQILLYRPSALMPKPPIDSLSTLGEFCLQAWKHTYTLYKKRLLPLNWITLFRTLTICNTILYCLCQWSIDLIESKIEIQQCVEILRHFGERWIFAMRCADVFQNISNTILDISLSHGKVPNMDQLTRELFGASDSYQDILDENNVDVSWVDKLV
How it was run: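 The E-score, a modified Wilcoxon-Mann-Whitney statistic, was computed by the Universal PBM Analysis Suite for every ungapped eight-base word pooled with its reverse complement. Scans behind it were normalised with masliner after bound GST-tagged yeast transcription factors were detected with fluorescent anti-GST. The proteins, at about 100-200 nM, had been applied to universal all-10-mer Agilent arrays made double-stranded by primer extension.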

Sequence | PBM E-score
AGGACATC | 0.0155
CAGGCGAG | -0.302
ATGGTGGG | -0.133
CGCGCAGA | 0.0979
CCACTGTA | -0.112
AATCGGAC | 0.362
CAGCGGCA | 0.198
GCGTATCA | -0.17
AAGTCCAC | 0.0098
ACTGAGCG | -0.0997
GGCGTGAA | 0.025
ACCAGTGA | -0.215
CTAGCCTC | -0.249
GAATTGAA | -0.0276
CGACTTGA | -0.0752
ACGACGTG | -0.128
CACACTAG | -0.189
TGACAGCA | -0.113
GGCTACAA | -0.205
ACGAATGA | -0.0416
CTGTGCTC | -0.132
GAACTCAA | -0.109
GCACTAAC | -0.0653
GAAAGGGA | -0.107
AGCGGCTG | 0.0872

Sequence | PBM E-score
AATTCAGC | -0.0791
ATCCTGGC | -0.277
AGCACGAC | -0.2
AATTTTGT | 0.0844
CACAGTCC | 0.00418
GTGACAAA | 0.113
GGACCCGA | 0.185
TCGTGAAA | -0.0764
TAAATACA | 0.0708
GGACTTTA | 0.317
TGTGCTAA | 0.0576
AACTCTCG | -0.23
AACCTTAG | -0.164
CAGTTATG | 0.143
AGGCGTCG | 0.0668
CCCCGCCA | 0.406
AGTATGCG | -0.0446
AAATAATA | 0.101
AACGTGCT | -0.21
GCACCCGA | 0.0572
AGACTTAT | -0.204
CGGCAGAC | 0.0711
AGCGGTTG | 0.0188
ACCAACGG | 0.193
ATGGTGCC | 0.222

Sequence | PBM E-score
AGCAGGGG | -0.0872
ACGCGAAT | 0.0453
GGACTAGA | 0.00576
AGATGACC | 0.00414
CTTAACCA | -0.11
ATGAAGGC | -0.094
CGCCCTCA | -0.00815
CGCAAGCA | -0.0326
ACATGTAT | 0.0254
TAAACGAA | -0.0854
ACCGCAGG | 0.241
AACTTCTT | -0.0358
AACATAGA | -0.123
CATGTGAC | -0.169
AAGGTAAA | 0.0733
CGCGTCGC | 0.0312
ACCATTAT | -0.0908
TGACATAA | 0.0303
AACAATCT | -0.129
TATTAACA | -0.0141
AGAAGTGG | -0.112
AATGCGAG | -0.198
AGTCGGTG | 0.385
GCACCTAA | 0.0125
CACGATGG | -0.179

Sequence | PBM E-score
CTATTTCC | 0.16
CAGACTGA | -0.0748
ACATACGT | 0.0721
CACACCCC | 0.0558
AGGGGGTG | -0.153
ATAGGTCA | -0.0628
GAATTTAC | -0.0188
ACAATGAC | -0.0214
CGCCTGAA | -0.0429
ACAGGCTG | -0.336
GACAAGGC | -0.03
ACGGGAAA | 0.19
AATAACTG | 0.0268
GCTCGAGC | 0.134
AGGGCGAT | -0.165
CCATATCC | 0.0628
GCCTTCGC | 0.072
CGTGCGAA | -0.139
CAAGGCAA | -0.139
GGTACGTA | -0.0252
ACCCAAAA | -0.204
ACCCGGCG | 0.232
TATATACA | -0.0903
AGCAGACT | -0.263
AAGTACCT | -0.178

Sequence | PBM E-score
CGAAATTC | 0.0811
ACGATCAC | -0.199
ATGCTGGC | -0.18
AACTGCTT | -0.149
CGGAAATA | 0.399
ATTGGTTA | -0.179
AATAGCCC | 0.119
ACGCCGCG | 0.361
TACGCGGA | 0.121
AGAATGTA | -0.0152
CCCGAACA | 0.107
GGTTGCAA | -0.0888
CTACCGAC | 0.264
AAAACGGT | 0.144
GCCCAGCC | -0.245
ATTTTGAC | -0.072
AACCACCC | 0.0323
ACTGATCC | -0.228
GACTATAA | 0.195
AATCACAG | -0.0987
CAATTACG | -0.1
CTGAAACC | 0.0837
GCAAAACC | 0.116
AAACAAAT | -0.122
CCCTAGAA | -0.0853

Sequence | PBM E-score
CAGAACGG | 0.259
ACACGTAT | -0.0124
CGTCCCGA | 0.245
CGACTAAG | 0.202
GGCACACC | -0.0809
ATTTTCCC | 0.178
GTATTTAA | -0.0551
TCTACGAA | -0.25
TCTGCAGA | 0.00207
AGATCTAG | -0.188
AGCATACT | -0.195
ATTTGATA | -0.0969
CTCGTACC | -0.0494
CCATACTA | -0.188
ACGTAAGG | -0.247
GCCTCGAC | -0.122
AGTGTCGC | 0.0584
AGTGGGAG | -0.247
ATACACCA | -0.0712
ACAACCTG | -0.266
ATAGATAT | -0.083
AGGTAGCG | 0.0541
TACACATA | -0.0898
AGGGCTGA | -0.143
ACTGAACA | -0.218

Sequence | PBM E-score
GAGGATAA | -0.0808
AGCAAGAG | -0.28
ACGCCGGC | 0.389
GCATATGC | -0.214
AAGTAAAT | 0.0828
CTGCTTTC | -0.11
ATGGACAC | -0.112
AGGGCCGA | 0.354
CGGTAGCA | 0.24
ACGCGGCA | 0.189
CAGGATGC | -0.0527
GAAAAGAA | -0.181
AGCTGTGC | -0.0928
AAGCATGC | -0.367
GGTGGGCA | -0.217
CCACTACG | -0.0468
AAACGTCA | -0.201
ATTCGGTC | 0.155
GAGACAGA | -0.108
CAACGCGA | -0.172
ACGGACGC | 0.133
GTTGGCCA | -0.227
